Reference: article PMC5908784, “Extracellular loops 2 and 3 of the calcitonin receptor selectively modify agonist binding and efficacy” (Biochemical Pharmacology, 2018)
pEC50: −log10 of the molar value.

Key:
Format in all cases: cell-based
[1] = target: T1, hCTR G369A (Homo sapiens, UniProt P30988, G369A); test: cAMP accumulation; settings: CV1-FlpIn cells, 30 min, IBMX, mean ± S.E.M.
T1 construct: c-Myc (N); expressed in transfected cells
Protocol: (§1) Cells (2.5 × 10^4 cells/well) were seeded into 96-well plates and incubated overnight. Cells were stimulated with increasing concentrations of ligands for 30 min in the presence of IBMX. The liquid was discarded, changed to absolute ethanol and volatilized to dryness at room temperature. […] Data were normalized to the response of 100 μM forskolin.
(§2) Data were corrected for radioligand occupancy using the Cheng-Prusoff equation in Prism; as such data are reported as pKi. Emax and EC50 were estimated from concentration-response curves using with a 3-parameter logistic equation in Prism (v7). These values are a composite of functional affinity, efficacy and stimulus response coupling. […] Significance was accepted at P < 0.05.

[2] = target: T2, hCTR T295A (Homo sapiens, UniProt P30988, T295A); test: cAMP accumulation; settings: CV1-FlpIn cells, 30 min, IBMX, mean ± S.E.M.
T2 construct: c-Myc (N); expressed in transfected cells
T2 sequence (P30988 25-474 T295A): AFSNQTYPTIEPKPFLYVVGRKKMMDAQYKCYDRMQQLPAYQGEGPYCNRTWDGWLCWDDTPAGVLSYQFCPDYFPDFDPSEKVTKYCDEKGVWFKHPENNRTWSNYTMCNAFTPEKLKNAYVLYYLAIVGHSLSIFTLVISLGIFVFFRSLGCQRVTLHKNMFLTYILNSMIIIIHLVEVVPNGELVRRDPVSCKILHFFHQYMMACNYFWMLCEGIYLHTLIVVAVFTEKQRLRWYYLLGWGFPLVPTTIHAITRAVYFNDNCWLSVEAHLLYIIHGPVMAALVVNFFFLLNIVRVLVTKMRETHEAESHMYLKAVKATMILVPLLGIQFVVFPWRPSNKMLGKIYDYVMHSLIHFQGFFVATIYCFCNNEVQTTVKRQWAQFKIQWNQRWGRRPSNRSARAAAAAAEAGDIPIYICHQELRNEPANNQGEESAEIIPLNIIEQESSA
Protocol: as §1, §2

[3] = target: T3, hCTR D373A (Homo sapiens, UniProt P30988, D373A); test: cAMP accumulation; settings: CV1-FlpIn cells, 30 min, IBMX, mean ± S.E.M.
T3 construct: c-Myc (N); expressed in transfected cells
T3 sequence (P30988 25-474 D373A): as the sequence (P30988 25-474 T295A) above, with A271T, D349A counted along it
Protocol: as §1, §2

[4] = target: T4, hCTR I300A (Homo sapiens, UniProt P30988, I300A); test: cAMP accumulation; settings: CV1-FlpIn cells, 30 min, IBMX, mean ± S.E.M.
T4 construct: c-Myc (N); expressed in transfected cells
T4 sequence (P30988 25-474 I300A): as the sequence (P30988 25-474 T295A) above, with A271T, I276A counted along it
Protocol: as §1, §2

[5] = target: T5, hCTR N286A (Homo sapiens, UniProt P30988, N286A); test: cAMP accumulation; settings: CV1-FlpIn cells, 30 min, IBMX, mean ± S.E.M.
T5 construct: c-Myc (N); expressed in transfected cells
T5 sequence (P30988 25-474 N286A): as the sequence (P30988 25-474 T295A) above, with N262A, A271T counted along it
Protocol: as §1, §2

[6] = target: T6, hCTR V358A (Homo sapiens, UniProt P30988, V358A); test: cAMP accumulation; settings: CV1-FlpIn cells, 30 min, IBMX, mean ± S.E.M.
T6 construct: c-Myc (N); expressed in transfected cells
T6 sequence (P30988 25-474 V358A): as the sequence (P30988 25-474 T295A) above, with A271T, V334A counted along it
Protocol: as §1, §2

[7] = target: T7, hCTR S364A (Homo sapiens, UniProt P30988, S364A); test: cAMP accumulation; settings: CV1-FlpIn cells, 30 min, IBMX, mean ± S.E.M.
T7 construct: c-Myc (N); expressed in transfected cells
T7 sequence (P30988 25-474 S364A): as the sequence (P30988 25-474 T295A) above, with A271T, S340A counted along it
Protocol: as §1, §2

[8] = target: T8, hCTR L291A (Homo sapiens, UniProt P30988, L291A); test: cAMP accumulation; settings: CV1-FlpIn cells, 30 min, IBMX, mean ± S.E.M.
T8 construct: expressed in transfected cells
T8 sequence (P30988 25-474 L291A): as the sequence (P30988 25-474 T295A) above, with L267A, A271T counted along it
Protocol: as §1, §2

[9] = target: T9, hCTR L368A (Homo sapiens, UniProt P30988, L368A); test: ERK1/2 phosphorylation; settings: pERK, CV1-FlpIn cells, three-parameter logistic fit, mean ± S.E.M.
T9 construct: c-Myc (N); expressed in transfected cells
T9 sequence (P30988 25-474 L368A): as the sequence (P30988 25-474 T295A) above, with A271T, L344A counted along it
Protocol: (§3) Cells (2.5 × 10^4 cells/well) were seeded into 96-well culture plates and incubated overnight. […] Data were normalized to the maximal response elicited by 10% FBS determined at 6 min.
as §2

[10] = target: T10, hCTR S292A (Homo sapiens, UniProt P30988, S292A); test: ERK1/2 phosphorylation; settings: pERK, CV1-FlpIn cells, three-parameter logistic fit, mean ± S.E.M.
T10 construct: expressed in transfected cells
T10 sequence (P30988 25-474 S292A): as the sequence (P30988 25-474 T295A) above, with S268A, A271T counted along it
Protocol: as §3, §2

[11] = target: T11, hCTR Y284A (Homo sapiens, UniProt P30988, Y284A); test: ERK1/2 phosphorylation; settings: pERK, CV1-FlpIn cells, three-parameter logistic fit, mean ± S.E.M.
T11 construct: expressed in transfected cells
T11 sequence (P30988 25-474 Y284A): as the sequence (P30988 25-474 T295A) above, with Y260A, A271T counted along it
Protocol: as §3, §2

[12] = target: T12, hCTR V357A (Homo sapiens, UniProt P30988, V357A); test: ERK1/2 phosphorylation; settings: pERK, CV1-FlpIn cells, three-parameter logistic fit, mean ± S.E.M.
T12 construct: c-Myc (N); expressed in transfected cells
T12 sequence (P30988 25-474 V357A): as the sequence (P30988 25-474 T295A) above, with A271T, V333A counted along it
Protocol: as §3, §2

[13] = target: T1, hCTR G369A; test: ERK1/2 phosphorylation; settings: pERK, CV1-FlpIn cells, three-parameter logistic fit, mean ± S.E.M.
Protocol: as §3, §2

[14] = target: T2, hCTR T295A; test: ERK1/2 phosphorylation; settings: pERK, CV1-FlpIn cells, three-parameter logistic fit, mean ± S.E.M.
Protocol: as §3, §2

[15] = target: T13, hCTR N365A (Homo sapiens, UniProt P30988, N365A); test: ERK1/2 phosphorylation; settings: pERK, CV1-FlpIn cells, three-parameter logistic fit, mean ± S.E.M.
T13 construct: c-Myc (N); expressed in transfected cells
T13 sequence (P30988 25-474 N365A): as the sequence (P30988 25-474 T295A) above, with A271T, N341A counted along it
Protocol: as §3, §2

[16] = target: T14, hCTR V293A (Homo sapiens, UniProt P30988, V293A); test: ERK1/2 phosphorylation; settings: pERK, CV1-FlpIn cells, three-parameter logistic fit, mean ± S.E.M.
T14 construct: c-Myc (N); expressed in transfected cells
T14 sequence (P30988 25-474 V293A): as the sequence (P30988 25-474 T295A) above, with V269A, A271T counted along it
Protocol: as §3, §2

[17] = target: T15, hCTR K366A (Homo sapiens, UniProt P30988, K366A); test: ERK1/2 phosphorylation; settings: pERK, CV1-FlpIn cells, three-parameter logistic fit, mean ± S.E.M.
T15 construct: c-Myc (N); expressed in transfected cells
T15 sequence (P30988 25-474 K366A): as the sequence (P30988 25-474 T295A) above, with A271T, K342A counted along it
Protocol: as §3, §2

[18] = target: T16, hCTR M367A (Homo sapiens, UniProt P30988, M367A); test: ERK1/2 phosphorylation; settings: pERK, CV1-FlpIn cells, three-parameter logistic fit, mean ± S.E.M.
T16 construct: c-Myc (N); expressed in transfected cells
T16 sequence (P30988 25-474 M367A): as the sequence (P30988 25-474 T295A) above, with A271T, M343A counted along it
Protocol: as §3, §2

[19] = target: T17, hCTR H296A (Homo sapiens, UniProt P30988, H296A); test: ERK1/2 phosphorylation; settings: pERK, CV1-FlpIn cells, three-parameter logistic fit, mean ± S.E.M.
T17 construct: c-Myc (N); expressed in transfected cells
T17 sequence (P30988 25-474 H296A): as the sequence (P30988 25-474 T295A) above, with A271T, H272A counted along it
Protocol: as §3, §2

[20] = target: T18, hCTR L298A (Homo sapiens, UniProt P30988, L298A); test: ERK1/2 phosphorylation; settings: pERK, CV1-FlpIn cells, three-parameter logistic fit, mean ± S.E.M.
T18 construct: c-Myc (N); expressed in transfected cells
T18 sequence (P30988 25-474 L298A): as the sequence (P30988 25-474 T295A) above, with A271T, L274A counted along it
Protocol: as §3, §2

[21] = target: T19, hCTR V283A (Homo sapiens, UniProt P30988, V283A); test: ERK1/2 phosphorylation; settings: pERK, CV1-FlpIn cells, three-parameter logistic fit, mean ± S.E.M.
T19 construct: expressed in transfected cells
T19 sequence (P30988 25-474 V283A): as the sequence (P30988 25-474 T295A) above, with V259A, A271T counted along it
Protocol: as §3, §2

[22] = target: T20, hCTR F356A (Homo sapiens, UniProt P30988, F356A); test: ERK1/2 phosphorylation; settings: pERK, CV1-FlpIn cells, three-parameter logistic fit, mean ± S.E.M.
T20 construct: c-Myc (N); expressed in transfected cells
T20 sequence (P30988 25-474 F356A): as the sequence (P30988 25-474 T295A) above, with A271T, F332A counted along it
Protocol: as §3, §2

[23] = target: T21, hCTR Y374A (Homo sapiens, UniProt P30988, Y374A); test: ERK1/2 phosphorylation; settings: pERK, CV1-FlpIn cells, three-parameter logistic fit, mean ± S.E.M.
T21 construct: c-Myc (N); expressed in transfected cells
T21 sequence (P30988 25-474 Y374A): as the sequence (P30988 25-474 T295A) above, with A271T, Y350A counted along it
Protocol: as §3, §2

[24] = target: T4, hCTR I300A; test: ERK1/2 phosphorylation; settings: pERK, CV1-FlpIn cells, three-parameter logistic fit, mean ± S.E.M.
Protocol: as §3, §2

[25] = target: T22, hCTR W361A (Homo sapiens, UniProt P30988, W361A); test: ERK1/2 phosphorylation
T22 construct: expressed in transfected cells
T22 sequence (P30988 25-474 W361A): as the sequence (P30988 25-474 T295A) above, with A271T, W337A counted along it
Protocol: as §3, §2

[26] = target: T23, hCTR Y299A (Homo sapiens, UniProt P30988, Y299A); test: ERK1/2 phosphorylation; settings: pERK, CV1-FlpIn cells, three-parameter logistic fit, mean ± S.E.M.
T23 construct: c-Myc (N); expressed in transfected cells
T23 sequence (P30988 25-474 Y299A): as the sequence (P30988 25-474 T295A) above, with A271T, Y275A counted along it
Protocol: as §3, §2

[27] = target: T5, hCTR N286A; test: ERK1/2 phosphorylation; settings: pERK, CV1-FlpIn cells, three-parameter logistic fit, mean ± S.E.M.
Protocol: as §3, §2

[28] = target: T6, hCTR V358A; test: ERK1/2 phosphorylation; settings: pERK, CV1-FlpIn cells, three-parameter logistic fit, mean ± S.E.M.
Protocol: as §3, §2

[29] = target: T7, hCTR S364A; test: ERK1/2 phosphorylation; settings: pERK, CV1-FlpIn cells, three-parameter logistic fit, mean ± S.E.M.
Protocol: as §3, §2

[30] = target: T24, hCTR V375A (Homo sapiens, UniProt P30988, V375A); test: ERK1/2 phosphorylation; settings: pERK, CV1-FlpIn cells, three-parameter logistic fit, mean ± S.E.M.
T24 construct: c-Myc (N); expressed in transfected cells
T24 sequence (P30988 25-474 V375A): as the sequence (P30988 25-474 T295A) above, with A271T, V351A counted along it
Protocol: as §3, §2

[31] = target: T8, hCTR L291A; test: ERK1/2 phosphorylation; settings: pERK, CV1-FlpIn cells, three-parameter logistic fit, mean ± S.E.M.
Protocol: as §3, §2

[32] = target: T25, hCTR N288A (Homo sapiens, UniProt P30988, N288A); test: ERK1/2 phosphorylation; settings: pERK, CV1-FlpIn cells, three-parameter logistic fit, mean ± S.E.M.
T25 construct: expressed in transfected cells
T25 sequence (P30988 25-474 N288A): as the sequence (P30988 25-474 T295A) above, with N264A, A271T counted along it
Protocol: as §3, §2

T1 sequence (P30988 25-474 G369A): as the sequence (P30988 25-474 T295A) above, with A271T, G345A counted along it

`CC(C)C[C@H](NC(=O)[C@H](CC(N)=O)NC(=O)[C@H](CC(N)=O)NC(=O)[C@H](CO)NC(=O)[C@H](CO)NC(=O)[C@H](CCCNC(=N)N)NC(=O)[C@@H](NC(=O)[C@H](CC(C)C)NC(=O)[C@H](Cc1ccccc1)NC(=O)[C@H](CC(N)=O)NC(=O)[C@H](C)NC(=O)[C@H](CC(C)C)NC(=O)[C@H](CCCNC(=N)N)NC(=O)[C@H](CCC(N)=O)NC(=O)[C@@H](NC(=O)[C@H](C)NC(=O)[C@@H]1CSSC[C@H](NC(=O)[C@@H](N)CCCCN)C(=O)N[C@@H](CC(N)=O)C(=O)N[C@@H]([C@@H](C)O)C(=O)N[C@@H](C)C(=O)N[C@@H]([C@@H](C)O)C(=O)N1)[C@@H](C)O)C(C)C)C(=O)NCC(=O)N1CCC[C@H]1C(=O)N[C@H](C(=O)N[C@@H](CC(C)C)C(=O)N1CCC[C@H]1C(=O)N1CCC[C@H]1C(=O)N[C@H](C(=O)N[C@@H](CC(N)=O)C(=O)N[C@H](C(=O)NCC(=O)N[C@@H](CO)C(=O)N[C@@H](CC(N)=O)C(=O)N[C@H](C(=O)N[C@@H](Cc1ccc(O)cc1)C(N)=O)[C@@H](C)O)C(C)C)[C@@H](C)O)C(C)C` [rAmy] was tested, and the pEC50 [1] was 7.83, the pEC50 [2] was 7.36 and the pEC50 [3] was 7.98. It also gave a pEC50 [4] of 7.61, a pEC50 [5] of 7.35 and a pEC50 [6] of 7.86. The pEC50 [7] was 8.35, the pEC50 [8] was 7.74 and the pEC50 [9] was 7.56. The pEC50 [10] was 7.76, the pEC50 [11] was 7.69 and the pEC50 [12] was 7.46. It also gave a pEC50 [13] of 7.73, a pEC50 [14] of 7.35 and a pEC50 [15] of 7.73. The pEC50 [16] was 7.29, the pEC50 [17] was 7.89 and the pEC50 [18] was 7.19. It also gave a pEC50 [19] of 7.47, a pEC50 [20] of 7.69 and a pEC50 [21] of 7.77. It also gave a pEC50 [22] of 7.06, a pEC50 [23] of 7.21 and a pEC50 [24] of 7.48. The pEC50 [25] was 7.24, the pEC50 [26] was 7.22 and the pEC50 [27] was 7.27. The pEC50 [28] was 7.23, the pEC50 [29] was 7.94 and the pEC50 [30] was 6.91. It also gave a pEC50 [31] of 7.35 and a pEC50 [32] of 7.28.
